The source of these data is US11178870B2 (priority 2017, dated 2021).

Holding throughout (format): in vivo
In assay [1] the test system is Botrytis cinerea. As to the kind of experiment: Test Example B: Gray mold on tomato. Particulars: Table 7, Test B.
The test system of assay [2] is Alternaia brassicicola. As to the kind of experiment: Test Example C: Alternaria sooty spot on cabbage. The conditions noted are these: Table 7, Test C.
Assay [3] has as its system Puccinia recondita. Description: Test Example E: Brown rust on wheat. Particulars: Table 7, Test E.
The test system of assay [4] is Blumeria graminis f. sp. hordei. Description: Test Example D: Powdery mildew on barley. The conditions noted are these: Table 7, Test D.
Assay [5] relates to Plasmopara viticola. As to the kind of experiment: Test Example G: Downy mildew on vine. The conditions noted are these: 250 ppm sprayed (2.5 ml/pot) before inoculation; assessed 7 to 10 days after inoculation.

Consider `CCc1ccccc1-c1c(-n2cc(C)cn2)cc(Br)c(=O)n1CC` [Compound 321], for which the “control value, Test B (gray mold on tomato)” value (from here on “control value, Test B”) in assay [1] was “L (L shows the control value of 50% or less)”. Moreover, the “control value, Test C (Alternaria sooty spot on cabbage)” value (“control value, Test C” for short) in assay [2] was “L (L shows the control value of 50% or less)”. Besides, the “control value, Test E (brown rust on wheat)” value (“control value, Test E” below) in assay [3] is “L (L shows the control value of 50% or less)”. Besides, the “control value, Test D (powdery mildew on barley)” value (“control value, Test D” below) in assay [4] is “L (L shows the control value of 50% or less)”. In addition, the “control value, Test G (downy mildew on vine)” value (shortened to “control value, Test G”) in assay [5] is “L (L shows the control value of 50% or less)”.
Consider `CCc1ccccc1-c1c(-n2ncc(C)c2Cl)cc(Br)c(=O)n1CC` [Compound 322], for which the “control value, Test B” value in assay [1] is “H (H shows the control value more than 50%)”. In assay [2], the “control value, Test C” value is “H (H shows the control value more than 50%)”. In addition, the “control value, Test E” value in assay [3] was “H (H shows the control value more than 50%)”. Moreover, the “control value, Test D” value in assay [4] is reported as “H (H shows the control value more than 50%)”. Also, the “control value, Test G” value in assay [5] is listed as “L (L shows the control value of 50% or less)”.
As for `O=c1ccc(-c2ccsc2Br)c(-c2c(F)cccc2F)n1CC(F)F` [Compound 323], in assay [1], the “control value, Test B” value is reported as “H (H shows the control value more than 50%)”. In addition, the “control value, Test C” value in assay [2] is “H (H shows the control value more than 50%)”. In assay [3], the “control value, Test E” value is given as “H (H shows the control value more than 50%)”. The “control value, Test D” value in assay [4] is recorded as “H (H shows the control value more than 50%)”. Moreover, the “control value, Test G” value in assay [5] is listed as “H (H shows the control value more than 50%)”.
Consider `O=c1ccc(-c2cc(Br)sc2Br)c(-c2c(F)cccc2F)n1CC(F)F` [Compound 324], for which the “control value, Test B” value in assay [1] is recorded as “L (L shows the control value of 50% or less)”. Moreover, the “control value, Test C” value in assay [2] is listed as “L (L shows the control value of 50% or less)”. In addition, the “control value, Test E” value in assay [3] was “L (L shows the control value of 50% or less)”. Also, the “control value, Test D” value in assay [4] is “L (L shows the control value of 50% or less)”. Also, the “control value, Test G” value in assay [5] was “H (H shows the control value more than 50%)”.
With `O=c1c(Br)cc(-c2cc(Br)sc2Br)c(-c2c(F)cccc2F)n1CC(F)F` [Compound 325], in assay [1], the “control value, Test B” value is reported as “L (L shows the control value of 50% or less)”. Besides, the “control value, Test C” value in assay [2] was “H (H shows the control value more than 50%)”. In assay [3], the “control value, Test E” value is given as “L (L shows the control value of 50% or less)”. In addition, in assay [4], the “control value, Test D” value was “L (L shows the control value of 50% or less)”. Also, in assay [5], the “control value, Test G” value was “L (L shows the control value of 50% or less)”.
For the molecule `CCn1c(-c2ccc(F)cc2Br)c(-n2cc(F)cn2)ccc1=O` [Compound 326], the “control value, Test B” value in assay [1] is “H (H shows the control value more than 50%)”. In assay [2], the “control value, Test C” value is given as “H (H shows the control value more than 50%)”. Moreover, the “control value, Test E” value in assay [3] is on record as “H (H shows the control value more than 50%)”. For the same molecule, the “control value, Test D” value in assay [4] was “H (H shows the control value more than 50%)”. The “control value, Test G” value in assay [5] is given as “L (L shows the control value of 50% or less)”.
On to `CCn1c(-c2ccc(F)cc2Cl)c(-n2cc(F)cn2)ccc1=O` [Compound 327], for which the “control value, Test B” value in assay [1] is given as “H (H shows the control value more than 50%)”. Besides, in assay [2], the “control value, Test C” value is given as “H (H shows the control value more than 50%)”. Moreover, in assay [3], the “control value, Test E” value was “H (H shows the control value more than 50%)”. In addition, the “control value, Test D” value in assay [4] was “H (H shows the control value more than 50%)”. For the same molecule, in assay [5], the “control value, Test G” value is reported as “L (L shows the control value of 50% or less)”.
Turning to `CCn1c(-c2ccc(F)cc2Cl)c(-n2cc(F)cn2)cc(Br)c1=O` [Compound 329], the “control value, Test B” value in assay [1] is reported as “H (H shows the control value more than 50%)”. For the same molecule, in assay [2], the “control value, Test C” value is recorded as “H (H shows the control value more than 50%)”. Further, in assay [3], the “control value, Test E” value was “L (L shows the control value of 50% or less)”. Also, the “control value, Test D” value in assay [4] is on record as “L (L shows the control value of 50% or less)”. Further, the “control value, Test G” value in assay [5] was “L (L shows the control value of 50% or less)”.
Take `CCn1c(-c2ccc(F)cc2Br)c(-n2cc(C)cn2)ccc1=O` [Compound 330]: the “control value, Test B” value in assay [1] is recorded as “H (H shows the control value more than 50%)”. In addition, in assay [2], the “control value, Test C” value is listed as “H (H shows the control value more than 50%)”. Also, in assay [3], the “control value, Test E” value was “H (H shows the control value more than 50%)”. The “control value, Test D” value in assay [4] was “H (H shows the control value more than 50%)”. The “control value, Test G” value in assay [5] is on record as “L (L shows the control value of 50% or less)”.
On to `CCn1c(-c2ccc(F)cc2Br)c(-n2ncc(C)c2Cl)cc(Cl)c1=O` [Compound 331], for which the “control value, Test B” value in assay [1] is “H (H shows the control value more than 50%)”. The “control value, Test C” value in assay [2] is listed as “H (H shows the control value more than 50%)”. Further, in assay [3], the “control value, Test E” value is listed as “H (H shows the control value more than 50%)”. The “control value, Test D” value in assay [4] is on record as “H (H shows the control value more than 50%)”. Further, the “control value, Test G” value in assay [5] was “H (H shows the control value more than 50%)”.
Take `CCn1c(-c2ccc(F)cc2Br)c(-n2ncc(C)c2Cl)cc(Br)c1=O` [Compound 333]: the “control value, Test B” value in assay [1] was “H (H shows the control value more than 50%)”. The “control value, Test C” value in assay [2] is on record as “H (H shows the control value more than 50%)”. For the same molecule, the “control value, Test E” value in assay [3] is reported as “H (H shows the control value more than 50%)”. Besides, the “control value, Test D” value in assay [4] is recorded as “H (H shows the control value more than 50%)”. Besides, in assay [5], the “control value, Test G” value was “H (H shows the control value more than 50%)”.
Regarding `CCn1c(-c2ccc(F)cc2Cl)c(-n2ncc(C)c2Cl)cc(Cl)c1=O` [Compound 336], the “control value, Test B” value in assay [1] was “H (H shows the control value more than 50%)”. For the same molecule, the “control value, Test C” value in assay [2] was “H (H shows the control value more than 50%)”. In addition, the “control value, Test E” value in assay [3] is given as “H (H shows the control value more than 50%)”. Besides, the “control value, Test D” value in assay [4] is “H (H shows the control value more than 50%)”. Further, the “control value, Test G” value in assay [5] is recorded as “H (H shows the control value more than 50%)”.
Regarding `CCn1c(-c2ccc(F)cc2Cl)c(-n2ncc(C)c2Cl)cc(Br)c1=O` [Compound 337], the “control value, Test B” value in assay [1] was “H (H shows the control value more than 50%)”. For the same molecule, the “control value, Test C” value in assay [2] is recorded as “H (H shows the control value more than 50%)”. In addition, in assay [3], the “control value, Test E” value is reported as “H (H shows the control value more than 50%)”. Moreover, in assay [4], the “control value, Test D” value is “H (H shows the control value more than 50%)”. Further, in assay [5], the “control value, Test G” value was “H (H shows the control value more than 50%)”.
Take `Cc1cnn(-c2ccc(=O)n(CC(F)F)c2-c2ccc(F)cc2Br)c1` [Compound 338]: in assay [1], the “control value, Test B” value is listed as “H (H shows the control value more than 50%)”. Further, the “control value, Test C” value in assay [2] is on record as “H (H shows the control value more than 50%)”. Further, in assay [3], the “control value, Test E” value was “H (H shows the control value more than 50%)”. The “control value, Test D” value in assay [4] was “H (H shows the control value more than 50%)”. In addition, the “control value, Test G” value in assay [5] was “L (L shows the control value of 50% or less)”.
For the molecule `Cc1cnn(-c2cc(Br)c(=O)n(CC(F)F)c2-c2ccc(F)cc2Br)c1` [Compound 339], the “control value, Test B” value in assay [1] was “H (H shows the control value more than 50%)”. Further, in assay [2], the “control value, Test C” value was “H (H shows the control value more than 50%)”. Also, the “control value, Test E” value in assay [3] was “H (H shows the control value more than 50%)”. For the same molecule, the “control value, Test D” value in assay [4] is listed as “H (H shows the control value more than 50%)”. Moreover, the “control value, Test G” value in assay [5] is “L (L shows the control value of 50% or less)”.
Regarding `Cc1cnn(-c2cc(Br)c(=O)n(CC(F)F)c2-c2ccc(F)cc2Br)c1Cl` [Compound 341], the “control value, Test B” value in assay [1] is given as “H (H shows the control value more than 50%)”. The “control value, Test C” value in assay [2] was “H (H shows the control value more than 50%)”. For the same molecule, the “control value, Test E” value in assay [3] was “H (H shows the control value more than 50%)”. Moreover, the “control value, Test D” value in assay [4] is on record as “H (H shows the control value more than 50%)”. Further, in assay [5], the “control value, Test G” value was “L (L shows the control value of 50% or less)”.
With `Cc1cnn(-c2ccc(=O)n(CC(F)F)c2-c2ccc(F)cc2Cl)c1` [Compound 342], the “control value, Test B” value in assay [1] is on record as “H (H shows the control value more than 50%)”. In addition, the “control value, Test C” value in assay [2] was “H (H shows the control value more than 50%)”. The “control value, Test E” value in assay [3] is “H (H shows the control value more than 50%)”. Also, the “control value, Test D” value in assay [4] was “H (H shows the control value more than 50%)”. Further, the “control value, Test G” value in assay [5] is reported as “L (L shows the control value of 50% or less)”.
In the case of `Cc1cnn(-c2cc(Cl)c(=O)n(CC(F)F)c2-c2ccc(F)cc2Cl)c1Cl` [Compound 343], the “control value, Test B” value in assay [1] was “H (H shows the control value more than 50%)”. Moreover, the “control value, Test C” value in assay [2] is on record as “H (H shows the control value more than 50%)”. The “control value, Test E” value in assay [3] is “H (H shows the control value more than 50%)”. The “control value, Test D” value in assay [4] is reported as “H (H shows the control value more than 50%)”. For the same molecule, the “control value, Test G” value in assay [5] is listed as “H (H shows the control value more than 50%)”.
